From PubChem BioAssay (NCI)
Several values for one entry are separate records, joined by “and”; a condition that tells them apart may be missing. Equal values may be shown once.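 Exposure lasted 48 hours, with cells grown in 96-well plates and compounds tested at five concentrations. GI50 is the concentration that inhibits growth by half. TGI marks complete inhibition of growth.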

Each compound was assayed on NCI-H322M lung (assay: inhibition of tumour cell growth, NCI panel, 48 h).
`COc1cccc2c1nc1cccc(OC)c1[n+]2[O-]` gave a GI50 of 19.2 µM and a TGI of 57.3 µM.
`COC1=C(C)C(=O)C2=C(C1=O)C(CO)N1C(C#N)C3CC4C(C1C2N1CCOC41)N3C` (stereo not given) was tested, and the GI50 was 0.024 µM and 0.107 µM and the TGI was 1.76 µM and 1.6 µM and 2.01 µM.
`CCOc1ccccc1NC(=O)C(=O)C(C(=O)c1ccc2ccccc2c1)C1OC(=O)c2ccccc21` (stereo not given) gave a TGI of 56.7 µM.
In the case of `Cc1cc(Nc2cc(CN3CCOCC3)c3nc(C)c(Cc4ccc(Cl)cc4F)n3n2)n[nH]1`, the GI50 is reported as 3.8 µM and the TGI is reported as 14.7 µM.
`CC(C)(C)CC(C)(C)N(CSc1ccc(Cl)cc1)CSc1ccc(Cl)cc1` showed a GI50 of 2.52 µM and a TGI of 13.4 µM.
Compound `COc1ccc2[nH]c(-c3ccccc3)c(C=C(C#N)C#N)c2c1` has a GI50 of 7.39 µM and a TGI greater than 100 µM.
`C=C(C)[C@@H]1CC[C@]2(C(=O)Nc3ccccn3)CC[C@]3(C)[C@H](CC[C@@H]4[C@@]5(C)CCCNC(C)(C)[C@@H]5CC[C@]43C)[C@@H]12` gave a GI50 of 2.39 µM and a TGI of 7.49 µM.
In the case of `c1ccc(-n2cnnc2-c2nsc3ccccc23)cc1`, the TGI is reported as greater than 100 µM.
`O=S(=O)(CC#CCCCOCC#Cc1ccccc1C#CCS(=O)(=O)c1ccccc1)c1ccccc1` was tested, and the GI50 was greater than 100 µM and the TGI was greater than 100 µM.
For `Cc1cc(C)c(S(=O)(=O)N(CCCCCCN)OCCCN)c(C)c1`, the TGI was 33.7 µM.
`O=C1c2ccc3c4c(ccc(c24)C(=O)N1CCCNCc1ccccc1)C(=O)N(CCCNCc1ccccc1)C3=O` showed a GI50 of 0.221 µM and a TGI of 0.774 µM.
`COc1ccccc1-c1ccc2nc(NC(=O)Nc3cc(C(F)(F)F)cc(C(F)(F)F)c3)sc2c1` gave a GI50 of 2.78 µM and a TGI of 9.06 µM.
With `COc1ccc(-c2ccc3ncc4c(c3c2)n(-c2ccc(N3CCNCC3)c(C(F)(F)F)c2)c(=O)n4C)cn1` the GI50 was < 0.01 µM and 0.00881 µM and the TGI was 0.399 µM and 0.179 µM.
`C[C@@H]1[C@H]2[C@H](C=C3[C@@H]4CC[C@H]5Cc6nc7c(nc6C[C@]5(C)[C@H]4C[C@@H](O)[C@@]32C)C[C@@H]2CC[C@H]3C4=C[C@@H]5O[C@@]6(CC[C@](C)(CO)O6)[C@@H](C)[C@@]5(O)[C@@]4(C)[C@H](O)C[C@@H]3[C@@]2(C)C7)O[C@]12CCC(C)(C)O2` showed a GI50 of 2.68 µM and a TGI of 29 µM.
Compound `CC(C)Oc1c(C2(c3ccccc3O)SCCCS2)c(=O)c1=O` has a TGI greater than 100 µM.
With `OC(Cc1ccccc1)(Cc1ccccc1)c1ccccc1` the TGI was 53.1 µM.
Work on `COc1cc(C(C#N)NNC(=O)Cc2ccccc2)cc(OC)c1OC` (stereo not given) yielded a TGI greater than 100 µM.
`C/C(=C1/N=C(c2ccccc2)OC1=O)c1ccc(C)cc1` was tested, and the TGI was greater than 100 µM.
`COc1ccc(C2C3=C(COC3=O)OC(C)(C)Oc3cc4c(cc32)OCO4)cc1` (stereo not given) gave a TGI greater than 100 µM.
Compound `C=C(C)C(=O)OC1C(C(C)CCCO)=C(CO)CC2OC(=O)C(=C)C21` (stereo not given) has a TGI of 69.9 µM.
Compound `CC(C)[C@](O)(C(=O)OCC1=CC[N+]2([O-])CC[C@@H](O)[C@@H]12)[C@H](C)O` (stereo not given in full) has a TGI greater than 10000 µM.
`COc1cc(C2=C(C)[C@@H]3CN(CC=C3c3ccc(Cl)cc3)C2)c(S(=O)(=O)O)cc1OC` was tested, and the TGI was greater than 100 µM.
In the case of `O=c1oc2ccccc2cc1-c1csc(Nc2cc(Cl)cc(Cl)c2)n1`, the TGI is reported as greater than 100 µM.
Compound `CN(C)c1ccc(/C=C/c2ccnc3ccc4ccccc4c23)cc1` has a TGI greater than 100 µM.
`O=c1c2cc(Br)ccc2nc(-c2ccccc2)n1NCC1(O)OCC(O)C(O)C1O` (stereo not given) was tested, and the TGI was greater than 100 µM.
Compound `O=C(O)c1c([N+](=O)[O-])cc(C(F)(F)F)cc1[N+](=O)[O-]` has a TGI greater than 100 µM.
`NCCn1ccc(NC(c2ccccc2)(c2ccccc2)c2ccccc2)nc1=O` showed a TGI of 54.7 µM.
In the case of `Cc1ccc(/C=N/Nc2cc(C)c3ccccc3n2)s1`, the TGI is reported as 54.7 µM.
`CCNc1nc(N)c(C(=O)c2cccs2)s1` gave a TGI of 94.3 µM.
For `NC(=O)c1ccc2nc(-c3ccc(C4(N)CCC4)cc3)c(-c3ccccc3)n2n1`, the GI50 was 10.1 µM and the TGI was 31.2 µM.
With `COC1/C=C\OC2(C)Oc3c(C)c(O)c4c(O)c(c(/C=N\OCCCc5ccccc5)c(O)c4c3C2=O)NC(=O)/C(C)=C\C=C/C(C)C(O)C(C)C(O)C(C)C(OC(C)=O)C1C` (stereo not given) the TGI was 21.9 µM.
With `C/C=C/C(=O)[C@@H](O)C(C)C` the TGI was greater than 100 µM.
Compound `Nc1ccc(OCC(O)N2C(=O)c3ccccc3C2=O)cc1` (stereo not given) has a TGI greater than 100 µM.
Compound `NC(=S)N/N=C1\C(=O)N(CCc2ccccc2)C(=O)C1C(=O)NCCc1ccccc1` (stereo not given) has a TGI greater than 100 µM.
With `N.N.N.N.N.N#N.[Cl-].[Os+7]` the GI50 was 6.29 µM and the TGI was greater than 100 µM.
For `Clc1nc(Cl)c2ncn(C/C=C/Cn3cnc4c(Cl)nc(Cl)nc43)c2n1`, the GI50 was 25 µM and the TGI was 58.9 µM.
In the case of `COc1ccc2c(O)c(/C=C3\N=Nc4ncccc43)oc2c1C[C@H]1CCNC[C@H]1F`, the GI50 is reported as 1.14 µM and the TGI is reported as 7.07 µM.
`Cc1coc2c1CC1OC1(C)CCC1OC1(C)C2` (stereo not given) showed a TGI greater than 100 µM.
With `COc1ccc(OC)c(/C=C/C(=O)C(C)(C)C)c1` the TGI was 50.6 µM.
In the case of `COc1cc(OC)cc(-n2c(N)c(-c3nc4ccccc4s3)c3ccc([N+](=O)[O-])cc3c2=O)c1`, the TGI is reported as greater than 100 µM.
For `Nc1nc(N)c2ncn(-c3ccc(Cl)c(Cl)c3)c2n1`, the TGI was greater than 100 µM.
For `S=c1nc[nH]c2nc[nH]c12`, the GI50 was 4.6 µM and 18.9 µM and the TGI was greater than 750 µM.
`Fc1c[c-]c(-c2ccccn2)c(F)c1.[CH3-].[Pt+2].c1ccc([PH+](c2ccccc2)c2ccccn2)cc1` gave a GI50 of 2.78 µM and a TGI greater than 100 µM.
With `CC(C)(C)OC(=O)N1CC(Cn2cc(C(F)(F)F)c3c(Cl)ncnc32)C1` the GI50 was 1.8 µM and the TGI was 3.26 µM.
`N#Cc1nc(Sc2cnsn2)c(Sc2cnsn2)nc1C#N` showed a TGI greater than 100 µM.
Work on `Cc1ccc(S(=O)(=O)NC(=O)NC(C(=O)O)C(C)O)cc1` (stereo not given) yielded a TGI greater than 100 µM.
`CC(C)(Cl)C(Br)CCC(CBr)=C(Cl)CCl` (mixture of isomers) showed a TGI greater than 10 µM.
`Cc1cc2c(=O)cc(-c3ccc(C(F)(F)F)cc3)oc2c(C(=O)O)c1C` was tested, and the TGI was greater than 100 µM.
`COCOc1cc(OC)c(Br)cc1C/C(=N/O)C(=O)OC` gave a TGI greater than 100 µM.
With `NC(N)=NCc1ccc2c(c1)OCO2` the TGI was greater than 100 µM.
For `CCCCC1C(=O)N(c2ccc(S(=O)(=O)Nc3ccccn3)cc2)N(c2ccc(O)c(C(=O)O)c2)C1=O` (stereo not given), the TGI was greater than 100 µM.
`C[n+]1c2ccccc2c(C(=O)NC(CCCN=C(N)N)C(=O)O)c2ccccc21` (stereo not given) was tested, and the TGI was greater than 100 µM.
Work on `CCOC(=O)c1ccc(NC(=O)O/N=C(/Cl)C(C)C)cc1` yielded a TGI of 30.5 µM.
`CN(C)/N=C1\C=C2CC[C@H](O[Si](C)(C)C(C)(C)C)[C@@]2(C)CC1` gave a TGI of 43.9 µM.
`CC(C)=CCc1c(O)ccc2c1OC1c3ccc(O)c(CC=C(C)C)c3OCC21` (stereo not given) was tested, and the TGI was 26.7 µM.
In the case of `Cc1ccc(-c2cn3c(nc4ccccc43)c(-c3ccccc3)n2)cc1`, the TGI is reported as greater than 100 µM.
`COc1ccc(C(=O)Nc2ccc(S(=O)(=O)NCC(=O)O)cc2)cc1` gave a TGI greater than 100 µM.
`COc1ccc(C2=CC(c3ccc(Oc4ccnc5cc(Cl)ccc45)c(OC)c3)c3c(nc(OC)[nH]c3=O)N2)cc1` (stereo not given) showed a GI50 greater than 100 µM and a TGI greater than 100 µM.
In the case of `CN(C)CCNC(=O)c1cccc2cc([N+](=O)[O-])ccc12`, the GI50 is reported as 1.11 µM and 0.268 µM and the TGI is reported as 12 µM and 1.55 µM.
`CC(=O)/C(N=Nc1ccc(-n2c(C)nc3ccc(Br)cc3c2=O)cc1)=C(/C)O` showed a TGI greater than 100 µM.
Compound `O=c1c2[nH]c3ccccc3c2nc2n1CCS2` has a GI50 of 62 µM and a TGI greater than 100 µM.
Compound `COC(=O)/C=C\[C@@H]1[C@H](C)N1S(=O)(=O)c1ccc(C)cc1` (stereo not given in full) has a TGI greater than 100 µM.
With `CCOC(=O)CCC(NC(=O)c1ccc(Nc2cnc3cc(C(F)(F)F)ccc3n2)cc1)C(=O)OCC` (stereo not given) the TGI was greater than 100 µM.
In the case of `C=C(C)C1CC2=C(O1)C(=O)c1ccccc1C2=O` (stereo not given), the TGI is reported as 42.7 µM.
`CSc1c(S(C)=O)[nH]c2cc(Br)cc(Br)c12` (stereo not given) was tested, and the TGI was 81.6 µM.
`CCN(CC)CCSc1n[nH]c(-c2c[nH]c3nc(C)ccc3c2=O)n1` showed a TGI greater than 100 µM.
Work on `CN(C)Cc1cc(N=Nc2ccccc2Cl)ccc1O` yielded a TGI greater than 100 µM.
Work on `COc1cc2c(cc1O)[C@H](C)C(c1ccccc1OC)O2` (stereo not given in full) yielded a TGI greater than 100 µM.
In the case of `CCOC(=O)/C(=C\c1ccnc2ccccc12)P(=O)(OCC)OCC`, the TGI is reported as 13.4 µM.
